# Experimental data from publication PMC6919601, “Identification of Plasmodium dipeptidyl aminopeptidase allosteric inhibitors by high throughput screening” (PLoS ONE, 2019).
# The whole screen tested about 110,000 compounds, of which about 230 (0.21%) showed an effect of 50% or more. The list shows a part of the results.
# Biological target: DPAP1 (Plasmodium falciparum, UniProt Q8IIJ9)
# Experiment: primary screen, percent inhibition; read by cleavage of a fluorogenic dipeptide substrate; higher = more effect of the substance
# Parameters: species or system P. falciparum D10 trophozoite lysates; single well
# 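Note: 30 min substrate incubation versus DMSO and 10 µM JCP410 controls.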
# DPAP1, sequence (Q8IIJ9 whole entry, looked up): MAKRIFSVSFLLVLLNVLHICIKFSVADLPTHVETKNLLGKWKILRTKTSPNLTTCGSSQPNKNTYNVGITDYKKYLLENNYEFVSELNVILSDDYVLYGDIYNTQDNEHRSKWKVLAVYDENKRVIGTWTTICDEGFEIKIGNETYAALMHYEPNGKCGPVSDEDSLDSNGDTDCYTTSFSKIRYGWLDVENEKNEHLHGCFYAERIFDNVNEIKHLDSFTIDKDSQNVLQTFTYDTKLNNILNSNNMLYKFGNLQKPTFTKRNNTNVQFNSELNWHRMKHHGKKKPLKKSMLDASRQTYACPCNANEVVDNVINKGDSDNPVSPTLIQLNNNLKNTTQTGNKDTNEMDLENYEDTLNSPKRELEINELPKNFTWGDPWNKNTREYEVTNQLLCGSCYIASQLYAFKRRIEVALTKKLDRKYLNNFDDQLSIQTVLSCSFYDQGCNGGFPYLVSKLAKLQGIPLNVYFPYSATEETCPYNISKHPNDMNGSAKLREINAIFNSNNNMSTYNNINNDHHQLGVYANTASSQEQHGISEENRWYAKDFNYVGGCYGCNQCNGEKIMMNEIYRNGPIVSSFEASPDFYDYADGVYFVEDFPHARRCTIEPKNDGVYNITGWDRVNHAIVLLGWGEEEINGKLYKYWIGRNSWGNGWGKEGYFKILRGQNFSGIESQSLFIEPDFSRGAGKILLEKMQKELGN
row,Compound,% Inhibition @ 10 uM
1,Cc1ccc(S(=O)(=O)N(C)CC(=O)NCCO)cc1,-1.6%
2,CCOC(=O)C1=c2s/c(=C/c3ccncc3)c(=O)n2C(N)=C(C#N)C1c1ccncc1 (stereo not drawn),4.75%
3,CCCCSCCCNC(=O)C1CCC(CNS(=O)(=O)c2ccc(Cl)cc2)CC1 (stereo not drawn),-6.4%
4,O=C(NCCC1=CCCCC1)C1CCCN(S(=O)(=O)c2cccs2)C1 (stereo not drawn),5.74%
5,CCOC(=O)c1c(C)n(CCc2ccccc2)c2ccc(O)cc12,-3.37%
6,COc1ccc(CN2CCN(c3ccccn3)CC2)cc1Br,4.81%
7,CC1(C)C(=O)N(CN2CCOCC2)C(=O)N1CN1CCOCC1,19.2%
8,CCN(CC)S(=O)(=O)c1cccc(C(=O)NC2CCCCC2)c1,-6.44%
9,Clc1ccc2c(c1)[C@H]1OCC[C@H]1[C@@H](c1ccco1)N2,-2.65%
10,CN1C(=O)C(=CNc2ccccc2O)C(=O)N(C)C1=O,-1.06%
11,CSc1ncc(Cl)c(C(=O)N(Cc2ccccc2)C2CCS(=O)(=O)C2)n1 (stereo not drawn),0.569%
12,COc1cccc2c1OC1(CCN(C(C)=O)CC1)N1N=C(c3ccccc3)CC21 (stereo not drawn),1.52%
13,CC1(C)CC(N(Cc2cccs2)C(=O)c2ccco2)CCO1 (stereo not drawn),0.032%
14,Cc1ccc2c(c1)-c1onc(C(=O)NC3CCCC(C)C3C)c1CO2 (stereo not drawn),-3.47%
15,CC(C)N1C(=O)S/C(=C/c2ccc(N3CCOCC3)cc2)C1=O,2.22%
16,O=C(CC1COc2ccccc2O1)Nc1ccc(Br)cc1 (stereo not drawn),-3.04%
17,COc1cccc2sc(Nc3nc4cc5c(cc4s3)OCCO5)nc12,-4.96%
18,COc1cc(/C=C2\SC(Nc3ccccc3Cl)=NC2=O)ccc1OCC(=O)O,7.76%
19,Nc1nonc1C(=O)NCCCNC(=O)c1nonc1N,-3.13%
20,CCn1cc(C2=NOC(C(=O)Nc3cc(C)on3)C2)c(C)n1 (stereo not drawn),-8.58%
21,O=C(Cn1cc(S(=O)(=O)Cc2ccccc2)c2ccccc21)NCc1ccccc1Cl,3.72%

row,Compound,% Inhibition @ 10 uM
1,COc1ccc(OC)c(NS(=O)(=O)c2ccc(Cl)nc2)c1,5.31%
2,CC1CCN(C(=O)C2C3C=CC(C3)C2C(=O)O)CC1 (stereo not drawn),-1.32%
3,CCOc1ccccc1NC(=O)c1cc2ccccc2cc1O,12.6%
4,O=C(/C=C/c1ccccc1)Nc1ccc(Cl)c(Cl)c1,-1.38%
5,CC(CCc1ccccc1)NC(=O)CN1CCN(Cc2ccc(F)cc2Cl)C1=O (stereo not drawn),0.51%
6,COCCN1C(=O)/C(=C/c2ccc(C)cc2)S/C1=N\c1ccccc1,-11.1%
7,CCN1CCN(Cc2ccccc2C(F)(F)F)CC1,-3.56%
8,NC(=O)c1cc(S(=O)(=O)N2CCN(c3ncccn3)CC2)cs1,0.879%
9,CCOc1ccccc1C(=O)Nc1ccc(Cl)cc1,-6.2%
10,Cc1nn2c(=O)/c(=C/c3ccccc3)sc2nc1=O,-1.75%
11,CCN1CCN(C(=O)c2oc3ccc4c(c3c2C)C(=O)CC2(CCCCC2)O4)CC1,3.87%
12,CCOc1ccccc1Nc1nc(N)nc(CN(C)C2CCCCC2)n1,-4.49%
13,COCc1cc(C)nc(SCC(=O)NCc2ccco2)c1C#N,-5.34%
14,Cc1nc(C)c(-c2cc(C)c3c(C)nc(C)nc3n2)c(N)n1,1.44%
15,COc1ccc(NC(=O)CSc2n[nH]c(-c3ccccc3O)n2)cc1,-1.08%
16,COc1ccc(OCC(=O)Nc2c(C(=O)N3CCN(c4ncccn4)CC3)oc3ccccc23)cc1,4.6%
17,Cc1ccccc1CNCc1c(C(=O)O)n(Cc2cccc(F)c2)c2ccccc12,-5.3%
18,CC(C)c1ccc(OCC(O)CN2CCN(c3ccccc3F)CC2)cc1 (stereo not drawn),-8.78%
19,CSc1nc(/C=C2\C=Nc3ccccc32)c(O)[nH]1,0.76%
20,COc1ccc(Cc2nc3ccccc3[nH]2)cc1OC,-10.8%
21,CC1CCCCN1CCNC(=O)Cn1ncc2c3ccccc3n(C)c2c1=O (stereo not drawn),-0.23%

row,Compound,% Inhibition @ 10 uM
1,COc1ccc(CN2CCCCC2CCO)cc1Br (stereo not drawn),-3.27%
2,COc1ccc(C(=O)N2CCN(Cc3cccc(OC)c3OC)CC2)cc1OC,-15.2%
3,Cc1ccc2nc(O)c3cc(C(=O)NCCc4ccsc4)sc3c2c1,1.72%
4,CC(C)OC(=O)C1=C(N)OC2=C(C(=O)CC(C)(C)C2)C1c1ccccc1 (stereo not drawn),-5.36%
5,COc1ccc(S(=O)(=O)N(CC(=O)Nc2ccccc2Cl)c2ccc(C)cc2)cc1OC,5.07%
6,COc1ccc(C2C(C(=O)Nc3cnc4ccccc4c3)c3ccccc3C(=O)N2C)cc1 (stereo not drawn),5.11%
7,COc1ccc(-c2noc(CNC(=O)COc3ccc(Br)cc3)n2)cc1,0.276%
8,CC(C)NC(=O)CN(c1ccc(C23C[C@H]4C[C@@H](C2)C[C@@H](C3)C4)cc1)S(C)(=O)=O,-4.49%
9,COc1ccc2nc(NC(=O)CSc3nnnn3-c3ccccc3)sc2c1,3.47%
10,COc1ccc(OC2CCN(S(=O)(=O)c3ccc(F)cc3)CC2)cc1,3.66%
11,O=C(Nc1ccccc1O)c1cccc(S(=O)(=O)Nc2ccccc2Cl)c1,-1.78%
12,O=C(CN1C(=O)CSc2ncccc21)NC1CCCCCC1,4.22%
13,CC(=O)N(CC(=O)Nc1sc2c(c1C(=O)Nc1ccc(Br)cc1)CCC2)C(C)C,-2.66%
14,COc1cc(OC)cc(C(=O)N2CCN(Cc3ccc(OC)c(OC)c3OC)CC2)c1,-0.478%
15,Cc1ccccc1N(CC(=O)NC1CC2CCC1C2)S(=O)(=O)c1ccccc1 (stereo not drawn),-4.82%
16,C=CCn1c(SCC)nc2c(c1=O)C(C)(C)Cc1ccccc1-2,2.38%
17,COc1ccc(C(CC(=O)O)NC(=O)Cc2ccccc2)cc1 (stereo not drawn),2.7%
18,Cc1cc(NC(=O)CSc2nnc(Cc3cccn3C)n2-c2cccc(C)c2C)no1,2.12%
19,COc1cc(-c2noc(-c3cc4c(ccc5ccccc54)oc3=O)n2)cc(OC)c1OC,2.73%
20,COc1cccc(OCc2ccc(C(=O)O)cc2)c1,1.96%
21,CC(=O)c1cn(-c2ccc(CCc3ccc(-n4c(=O)[nH]cc(C(C)=O)c4=O)cc3)cc2)c(=O)[nH]c1=O,-4.68%
